This is one part of the list. Most values come without repeats; read them as rough.
Legend:
Assay in all cases: cell count relative to DMSO control; melanoma cells; higher = more viable cells
Details in all cases: library dose: standard library concentration; 72 h
G361 = tested on: G361
IPC-298 = tested on: IPC-298
IST-MEL1 = tested on: IST-MEL1
LOXIMVI = tested on: LOXIMVI
MEL-HO = tested on: MEL-HO
MeWo = tested on: MeWo
RPMI7951 = tested on: RPMI7951
RVH-421 = tested on: RVH-421
SkMel28 = tested on: SkMel28
SkMel2 = tested on: SkMel2
SkMel30 = tested on: SkMel30
SkMel5 = tested on: SkMel5
UACC257 = tested on: UACC257
UACC62 = tested on: UACC62
WM115 = tested on: WM115
WM1716 = tested on: WM1716
WM3526 = tested on: WM3526
LB2518-MEL = tested on: LB2518-MEL
MZ2-MEL = tested on: MZ2-MEL
WM1745 = tested on: WM1745
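Further: cells treated in 1,536-well plates, then fixed and DAPI-stained, with nuclei counted from automated high-throughput microscope images.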

Compound | cell count (G361) [%] | cell count (IPC-298) [%] | cell count (IST-MEL1) [%] | cell count (LOXIMVI) [%] | cell count (MEL-HO) [%] | cell count (MeWo) [%] | cell count (RPMI7951) [%] | cell count (RVH-421) [%] | cell count (SkMel28) [%] | cell count (SkMel2) [%] | cell count (SkMel30) [%] | cell count (SkMel5) [%] | cell count (UACC257) [%] | cell count (UACC62) [%] | cell count (WM115) [%] | cell count (WM1716) [%] | cell count (WM3526) [%] | cell count (LB2518-MEL) [%] | cell count (MZ2-MEL) [%] | cell count (WM1745) [%]
CCN(CC)CCNC(=O)c1c(C)[nH]c(/C=C2\C(=O)Nc3ccc(F)cc32)c1C [sunitinib] + O=C(O)C(=O)Nc1sc2c(c1C(=O)O)CCNC2 [TCS401] (first compound 2 µM, partner dose 8.33333 µM) | 80 | 77.1 | 114 | 88.4 | 93.3 | 55.9 | 57.9 | 72.1 | 59.9 | 71.1 | 83 | 47.3 | 72.8 | 60.7 | 71.3 | 91.8 | 50.4 | – | – | –
COc1cc([C@@H]2c3cc4c(cc3[C@@H](O[C@@H]3O[C@@H]5CO[C@@H](C)O[C@H]5[C@H](O)[C@H]3O)[C@H]3COC(=O)[C@H]23)OCO4)cc(OC)c1O [etoposide] + O=c1cc(-c2cccc3c2Sc2ccccc2S3)oc(N2CCOCC2)c1 [KU55933] (first compound 0.1 µM, partner dose 5 µM) | 82 | 71.8 | 107 | 108 | 82.7 | 86.1 | 88.8 | 87.2 | 85.4 | – | 95.7 | 72.2 | 86.9 | 77.5 | 87.4 | 72.6 | 102 | – | – | –
CCN(CC)CCNC(=O)c1c(C)[nH]c(/C=C2\C(=O)Nc3ccc(F)cc32)c1C [sunitinib] + CCCCCCCCc1ccc(CCC(N)(CO)CO)cc1 [fingolimod] (first compound 2 µM, partner dose 10 µM) | 1.38 | 17.2 | 12 | 22.6 | 3.01 | 16.7 | 2.8 | 10.3 | – | 0.3 | 9.06 | 18.5 | 87.8 | 3.6 | 7.64 | 71.3 | 30.7 | 0.298 | 1.42 | 5.78
CCN(CC)CCNC(=O)c1c(C)[nH]c(/C=C2\C(=O)Nc3ccc(F)cc32)c1C [sunitinib] + Oc1cc(-c2nc(-c3ccccc3)[nH]c2-c2ccncc2)ccc1Cl [L779450] (first compound 2 µM, partner dose 1 µM) | 37.7 | 48.2 | 76.7 | 91.9 | 77.5 | 38 | 52.1 | 87.4 | 22.4 | 1.69 | 39.8 | 30.5 | 92 | 34.2 | 49.3 | 54.4 | 26.2 | 51.3 | 79.1 | –
Cn1cnc2c(F)c(Nc3ccc(Br)cc3Cl)c(C(=O)NOCCO)cc21 [selumetinib] + O=C1NC(=O)/C(=C/c2ccc(-c3ccc(F)cc3O)o2)S1 [AS252424] (first compound 0.075 µM, partner dose 5 µM) | 53.7 | 41.5 | 83.5 | 97.5 | 72.4 | 60.8 | 124 | 84.7 | 61.3 | 40 | 59 | 64.5 | 102 | 44.5 | 80.1 | 84.7 | 46.8 | 39.7 | 36.2 | –
COc1cc([C@@H]2c3cc4c(cc3[C@@H](O[C@@H]3O[C@@H]5CO[C@@H](C)O[C@H]5[C@H](O)[C@H]3O)[C@H]3COC(=O)[C@H]23)OCO4)cc(OC)c1O [etoposide] + O=C(/C=C/c1cccnc1)NCCCCC1CCN(C(=O)c2ccccc2)CC1 [FK866] (first compound 0.1 µM, partner dose 0.05 µM) | 2.5 | 22.7 | 64.3 | 72.6 | 43.5 | 82.8 | 89 | 39.7 | 78.5 | 10.7 | 87.2 | 84.9 | 89.4 | 71 | 79.7 | 64.9 | 99.8 | – | – | 79
COc1cc([C@@H]2c3cc4c(cc3[C@@H](O[C@@H]3O[C@@H]5CO[C@@H](C)O[C@H]5[C@H](O)[C@H]3O)[C@H]3COC(=O)[C@H]23)OCO4)cc(OC)c1O [etoposide] + COC(=O)c1sccc1S(=O)(=O)Nc1ccc(Nc2ccccc2)cc1OC [GSK0660] (first compound 0.1 µM, partner dose 5 µM) | 95.8 | 93.5 | 112 | 137 | 104 | 85.8 | 129 | 91.8 | 117 | 66.7 | 77.8 | 101 | 81.5 | 64.2 | 79.5 | 66.6 | 99 | – | – | –
